Here are results for 115 sequences from the BET-seq Pho4 binding data (Le et al. 2018).

The list shows a part of the results. The energies were worked out here from pooled read counts, against the library average; single values are noisy.

This assay addresses T1, Pho4 (S. cerevisiae) (UniProt P07270).
T1 sequence: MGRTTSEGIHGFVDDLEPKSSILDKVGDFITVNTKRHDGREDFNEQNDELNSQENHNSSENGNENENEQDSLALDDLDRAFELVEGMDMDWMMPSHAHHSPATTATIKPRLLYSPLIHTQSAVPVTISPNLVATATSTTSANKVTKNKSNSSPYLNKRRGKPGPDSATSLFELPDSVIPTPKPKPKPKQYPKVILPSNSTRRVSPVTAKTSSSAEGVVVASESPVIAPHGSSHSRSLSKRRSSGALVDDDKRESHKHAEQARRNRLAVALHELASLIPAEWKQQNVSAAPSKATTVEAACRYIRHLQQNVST
Kind of assay: relative binding free energy (BET-seq); higher = weaker binding. The following applies: reference: library average.
Take GTGGTCACGTGATCGC: the “relative binding free energy” value was 0.25 kcal/mol.

Take TCGTGCACGTGGATCG: the “relative binding free energy” value came out at 0.1 kcal/mol.

As to GTTAACACGTGGTAGG, the “relative binding free energy” value came out at 0 kcal/mol.

Turning to GTTTGCACGTGAAGAT, the “relative binding free energy” value was 0.21 kcal/mol.

On to AGATTCACGTGCGGTT, for which the “relative binding free energy” value came out at 0.35 kcal/mol.

Consider TCTGTCACGTGTGGTA, for which the “relative binding free energy” value amounted to 0.1 kcal/mol.

With GTTAGCACGTGGGGGA, the “relative binding free energy” value is -0.09 kcal/mol.

For the sequence ACTGGCACGTGGGGTC, the “relative binding free energy” value is -0.14 kcal/mol.

For the sequence AAGGTCACGTGGGAGG, the “relative binding free energy” value amounted to 0.08 kcal/mol.

Regarding ACTGTCACGTGGTTTT, the “relative binding free energy” value was 0.21 kcal/mol.

As for GTGGGCACGTGGACTA, the “relative binding free energy” value is -0.05 kcal/mol.

Regarding TGTGGCACGTGATCAT, the “relative binding free energy” value was -0.04 kcal/mol.

For ATGCTCACGTGTAGGT, the “relative binding free energy” value came out at 0.06 kcal/mol.

As for TTTATCACGTGATAGT, the “relative binding free energy” value is 0.17 kcal/mol.

Turning to TCAATCACGTGGGGAG, the “relative binding free energy” value is 0.01 kcal/mol.

Consider GGTATCACGTGGGTTA, for which the “relative binding free energy” value is 0.06 kcal/mol.

As for TGGTACACGTGTGAAG, the “relative binding free energy” value came out at 0.1 kcal/mol.

For AAGCACACGTGGGTGG, the “relative binding free energy” value is -0.12 kcal/mol.

Regarding GGAAACACGTGTAGGT, the “relative binding free energy” value was determined as 0.17 kcal/mol.

For TAGGTCACGTGGCGAT, the “relative binding free energy” value was -0.06 kcal/mol.

As for TGGTGCACGTGTAGGC, the “relative binding free energy” value was 0.04 kcal/mol.

Consider TCTGTCACGTGGTTCT, for which the “relative binding free energy” value was determined as 0.04 kcal/mol.

TTATGCACGTGCTTAA: the “relative binding free energy” value came to 0.02 kcal/mol.

As to ATCATCACGTGGGATT, the “relative binding free energy” value came to 0.09 kcal/mol.

TAGCTCACGTGGTAGT: the “relative binding free energy” value stood at 0.08 kcal/mol.

GGGAGCACGTGTAGCT: the “relative binding free energy” value was -0.19 kcal/mol.

Take TGGGACACGTGGTCAT: the “relative binding free energy” value was -0.14 kcal/mol.

As for TTAGGCACGTGCCGGG, the “relative binding free energy” value was -0.22 kcal/mol.

Turning to TTTGTCACGTGCAGGT, the “relative binding free energy” value is -0.04 kcal/mol.

Consider AGGGTCACGTGACATG, for which the “relative binding free energy” value amounted to 0.09 kcal/mol.

As for TGAGGCACGTGATCAT, the “relative binding free energy” value is -0.08 kcal/mol.

In the case of AAATTCACGTGAGTGG, the “relative binding free energy” value was determined as 0.38 kcal/mol.

Take TGCTGCACGTGTAAGA: the “relative binding free energy” value turned out to be 0.17 kcal/mol.

Regarding CGGCGCACGTGAGTGT, the “relative binding free energy” value amounted to 0.11 kcal/mol.

On to TGGTACACGTGACAGG, for which the “relative binding free energy” value is 0.14 kcal/mol.

Consider AGAGTCACGTGGCAGG, for which the “relative binding free energy” value was -0.01 kcal/mol.

Consider ATAATCACGTGTAGGA, for which the “relative binding free energy” value was determined as 0.16 kcal/mol.

Consider TGATGCACGTGATGCG, for which the “relative binding free energy” value was 0.14 kcal/mol.

With CGTAGCACGTGGTTCT, the “relative binding free energy” value stood at 0.03 kcal/mol.

With AGTGTCACGTGAGAAA, the “relative binding free energy” value worked out at 0.18 kcal/mol.

As for ATTTACACGTGAAGTT, the “relative binding free energy” value stood at 0.29 kcal/mol.

For the sequence GTGCACACGTGGGGCT, the “relative binding free energy” value worked out at 0.01 kcal/mol.

With TTTGACACGTGAGGCG, the “relative binding free energy” value stood at 0.33 kcal/mol.

As for TTGAACACGTGAGTGG, the “relative binding free energy” value came out at 0.21 kcal/mol.

On to GTTTGCACGTGGTATA, for which the “relative binding free energy” value is -0.06 kcal/mol.

On to GGGCTCACGTGGGTAC, for which the “relative binding free energy” value was determined as 0.16 kcal/mol.

Take TTGAGCACGTGTATGT: the “relative binding free energy” value was -0.09 kcal/mol.

GCGGGCACGTGGTGGG: the “relative binding free energy” value was -0.08 kcal/mol.

With TTTATCACGTGGTCAG, the “relative binding free energy” value turned out to be 0.11 kcal/mol.

As to TTGAACACGTGTATTT, the “relative binding free energy” value came out at 0.1 kcal/mol.

For the sequence TCTTGCACGTGACGTG, the “relative binding free energy” value was found to be 0.17 kcal/mol.

For the sequence TGTTACACGTGTAGGA, the “relative binding free energy” value came to 0.06 kcal/mol.

Regarding TTGTTCACGTGCGAGT, the “relative binding free energy” value turned out to be 0.2 kcal/mol.

For AAGTACACGTGGGGCT, the “relative binding free energy” value is 0 kcal/mol.

On to ATTTACACGTGTGTAG, for which the “relative binding free energy” value was found to be 0.13 kcal/mol.

For TGTCACACGTGTGGCG, the “relative binding free energy” value was determined as 0.2 kcal/mol.

Consider AGGGGCACGTGCGCGA, for which the “relative binding free energy” value was -0.34 kcal/mol.

Take TGAAGCACGTGAAGGT: the “relative binding free energy” value was 0.18 kcal/mol.

For the sequence TGCGACACGTGGCGGG, the “relative binding free energy” value was -0.14 kcal/mol.

For TACGGCACGTGGGGAT, the “relative binding free energy” value is -0.24 kcal/mol.

As to TAAGTCACGTGTGCGT, the “relative binding free energy” value was 0.11 kcal/mol.

Regarding ATTCTCACGTGGGTGG, the “relative binding free energy” value was 0.1 kcal/mol.

As for GTATACACGTGATATG, the “relative binding free energy” value came to 0.11 kcal/mol.

On to AAGTGCACGTGATGTA, for which the “relative binding free energy” value stood at 0.11 kcal/mol.

For the sequence TAGTACACGTGCAGGT, the “relative binding free energy” value came out at 0.04 kcal/mol.

Turning to AAGGCCACGTGGGGCG, the “relative binding free energy” value is -0.37 kcal/mol.

For TGTTTCACGTGGCGGC, the “relative binding free energy” value stood at 0.28 kcal/mol.

Take TCGGTCACGTGTGAGC: the “relative binding free energy” value turned out to be 0.21 kcal/mol.

For the sequence TCGGTCACGTGTTTGA, the “relative binding free energy” value was found to be 0.11 kcal/mol.

With TTGAACACGTGTGGTG, the “relative binding free energy” value was determined as 0.03 kcal/mol.

Regarding AGTTGCACGTGGATTA, the “relative binding free energy” value came out at 0 kcal/mol.

Take AGGAACACGTGTGTTA: the “relative binding free energy” value turned out to be 0.13 kcal/mol.

Take TGCCTCACGTGAGGGT: the “relative binding free energy” value is 0.27 kcal/mol.

Take TGTGGCACGTGCAGTG: the “relative binding free energy” value was -0.17 kcal/mol.

CAGATCACGTGTGGGG: the “relative binding free energy” value amounted to 0.24 kcal/mol.

With CTGGGCACGTGGTAGG, the “relative binding free energy” value was -0.16 kcal/mol.

As for ATTCTCACGTGGAATG, the “relative binding free energy” value turned out to be 0.24 kcal/mol.

On to TGTGACACGTGGTTAT, for which the “relative binding free energy” value was -0.02 kcal/mol.

As for GGATACACGTGCGGTT, the “relative binding free energy” value was -0.03 kcal/mol.

On to GTGGGCACGTGGATTT, for which the “relative binding free energy” value is 0.13 kcal/mol.

Turning to GTTAGCACGTGGAAGA, the “relative binding free energy” value was 0.21 kcal/mol.

Consider GGTATCACGTGGGACT, for which the “relative binding free energy” value is -0.04 kcal/mol.

As to GTGGGCACGTGCGGTC, the “relative binding free energy” value is -0.11 kcal/mol.

Take AGTGTCACGTGGGATT: the “relative binding free energy” value was -0.01 kcal/mol.

Regarding TTAGACACGTGGTTTA, the “relative binding free energy” value was determined as 0.05 kcal/mol.

Turning to AAGGGCACGTGGTCGA, the “relative binding free energy” value was -0.3 kcal/mol.

GTCGTCACGTGTGTCG: the “relative binding free energy” value came out at 0.26 kcal/mol.

For CGGTACACGTGTTAGT, the “relative binding free energy” value worked out at 0.06 kcal/mol.

Consider GTGTACACGTGTCGTA, for which the “relative binding free energy” value was determined as 0.18 kcal/mol.

TTGGACACGTGGGGAT: the “relative binding free energy” value worked out at 0.04 kcal/mol.

Consider ATGAGCACGTGCGGGA, for which the “relative binding free energy” value was -0.23 kcal/mol.

As for CTGTTCACGTGCGTTG, the “relative binding free energy” value is 0.21 kcal/mol.

For the sequence GGGTTCACGTGTTCTA, the “relative binding free energy” value turned out to be 0.3 kcal/mol.

With GGGGACACGTGATTGG, the “relative binding free energy” value stood at 0.22 kcal/mol.

Take AGTGTCACGTGAGTGC: the “relative binding free energy” value worked out at 0.04 kcal/mol.

Regarding GTAAACACGTGGGGTC, the “relative binding free energy” value is -0.04 kcal/mol.

Regarding CTGCGCACGTGGGTGA, the “relative binding free energy” value is -0.24 kcal/mol.

Regarding TGAATCACGTGCGGTT, the “relative binding free energy” value is 0.05 kcal/mol.

On to AGAAGCACGTGTGGGA, for which the “relative binding free energy” value was 0.04 kcal/mol.

Take TCGAGCACGTGAGTGG: the “relative binding free energy” value amounted to 0.12 kcal/mol.

On to TGGATCACGTGGGGAT, for which the “relative binding free energy” value turned out to be 0.1 kcal/mol.

With GGTGACACGTGCAGGG, the “relative binding free energy” value came to 0.07 kcal/mol.

On to AAGTGCACGTGGGGGG, for which the “relative binding free energy” value is -0.14 kcal/mol.

For the sequence GGGATCACGTGTGACA, the “relative binding free energy” value was determined as 0.43 kcal/mol.

Turning to GTAAACACGTGTGCGG, the “relative binding free energy” value was -0.03 kcal/mol.

GGGGCCACGTGTTAGG: the “relative binding free energy” value is 0.02 kcal/mol.

As for GAAGGCACGTGGGTTC, the “relative binding free energy” value was -0.03 kcal/mol.

On to ATGGTCACGTGAGGGT, for which the “relative binding free energy” value came to 0.24 kcal/mol.

On to TTTGTCACGTGTCAGG, for which the “relative binding free energy” value stood at 0.12 kcal/mol.

Consider TTATTCACGTGGAGTG, for which the “relative binding free energy” value was found to be 0.29 kcal/mol.

TTGTTCACGTGAGAGA: the “relative binding free energy” value is 0.32 kcal/mol.

As for ATGATCACGTGGCGTG, the “relative binding free energy” value came to 0.03 kcal/mol.

TCTTTCACGTGGGCTT: the “relative binding free energy” value amounted to 0.24 kcal/mol.

For ATTGGCACGTGTAGTC, the “relative binding free energy” value is -0.04 kcal/mol.

In the case of TTATGCACGTGTCCTG, the “relative binding free energy” value is -0.1 kcal/mol.
